Among all 48,000 compounds or so, about 120 (0.25%) were called active. Not shown: some 4% with an inconclusive outcome. Calls follow the shape of the dose curve; as a rule, active = well fitted activation curve with a large enough effect; inconclusive = small, poorly fitted or top-dose-only effect, or another doubt; inactive = no such curve, though single readings can be large or run the other way. The list shows a part of the results.
Test: Primary qHTS for Identification of Small Molecule Activators of Huntingtin-Antisense Promoter Activity; also: nearly all actives have a fitted effect of over 55% in size
Conditions: HEK293 HTT-AS promoter firefly luciferase reporter, 24 h; series mostly up to 57.5 µM; activity change, positive = activation: at the top concentration
How it was run: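 HEK293 cells carrying firefly luciferase reporters were seeded at 2,500 per well in Opti-MEM and cultured for 24 h. They were then treated with compounds at up to 57.5 uM final for 24 h at 37 degrees C before Dual-Glo luminescence readout.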

Activity change, positive = activation, inactive:
COc1ccc(OC)c(/C=C(/C#N)c2nc(-c3ccc(-c4ccccc4)cc3)cs2)c1 -5.95%, Cc1ccc(CNC(=O)Cn2c(=O)n(-c3ccc(Cl)cc3)c(=O)c3c(C)c(C)sc32)cc1 16.4%, O=C(NCc1ccc(F)cc1)c1cc2c(=O)n3ccccc3nc2s1 27%, Cc1cc(C)cc(NS(=O)(=O)c2ccc3[nH]cc(C(=O)N(C)Cc4ccccc4)c(=O)c3c2)c1 -14.7%, Cc1[nH]c2ccccc2c1C1N2CC3(C)CN1CC(C)(C2)C3=O (stereo unspecified) -6.38%, O=C(Nc1ccc(Br)cc1F)N1CCC(CN2CCCC2)CC1 -11.5%, Cc1nn(C)c2c1c(C(F)(F)F)cc(=O)n2C(C)C(=O)NCc1ccc(Cl)cc1 (stereo unspecified) -10.3%, CC1=C(C(=O)OCc2ccccc2)C(c2cccc(Cl)c2Cl)CC(=O)N1 (stereo unspecified) 0.0265% [at 11.5 µM, percent change from vehicle, -100% = no light], O=S(=O)(O)CCS, Cc1cccc(CNC(=O)CSCc2cnn(-c3ccccc3)c2-n2cccc2)c1 -13.5%, CCOC(=O)c1ccc(NS(=O)(=O)c2cc(-c3onc(C)c3C)ccc2C)cc1 -25.7%, COc1cc(OC)c(C2Nc3c(C)cccc3-c3cc(C)nn32)cc1OC (stereo unspecified) -17.8%, CC1(C)SCCN(S(=O)(=O)c2ccc(OCC#CCO)cc2)[C@@H]1C(=O)NO -2.34%, CCN1C(=O)c2ccccc2S(=O)c2ccc(C(=O)N3CCN(c4cccc(C)c4)C(C)C3)cc21 (stereo unspecified) -36.1%, CC1=C(c2ccc(C)cc2)S(=O)(=O)NC1=NCc1cccc(F)c1 -8.67%, O=C(O)c1ccc(-n2c(/C=C\c3ccc(O)cc3)nc3ccccc3c2=O)cc1 -18.5%, COc1ccc(/C=C(\C#N)c2nc(-c3cc4c(ccc5ccccc54)oc3=O)cs2)cc1O -2.5%, Cc1ccc(C2=Nc3ccccc3N(CC(=O)NCc3ccc(F)cc3)C(=O)C2)cc1C 21.7%, CCOC(=O)c1ccccc1NC(=O)c1sc2ncn(Cc3cccc(F)c3)c(=O)c2c1C -5.05%, COc1ccc(OC)c(S(=O)(=O)NCc2cccn2Cc2cccc(C)c2)c1 -17%, CC1=C(C(=O)Nc2cccnc2)C(c2ccc(Cl)cc2)n2nc(-c3ccccc3)nc2N1 (stereo unspecified) -23.7%, Cc1ccc(C)c(NC(=O)CSc2c3c(nc4ccc(Cl)cc24)CCCC3)c1 -31.1%, COc1cn(CC(=O)Nc2cccc(C)c2C)c(CN2CCCCC2)cc1=O -2.81%, Cn1c(=O)c2c(nc3n(-c4ccc(O)cc4)c(-c4ccc(Br)cc4)cn23)n(C)c1=O -6.4%, COc1ccc(C(=O)Nc2cccc(OCc3cc(=O)n4c5c(sc4n3)CCCC5)c2)cc1 -6.56%, CCn1cc(C(=O)O)c(=O)c2cnc(N3CCCC3)nc21 -11% [at 11.5 µM, percent change from vehicle, -100% = no light], COc1ccc(OCc2nc3c4c(-c5ccccc5)c(-c5ccccc5)oc4ncn3n2)cc1 -4.49%, COc1cccc(C(=O)c2cn(CC(=O)NCc3ccccc3)c3nc(C)ccc3c2=O)c1 -18.2%, COC(=O)c1sc(NC(=O)/C=C/c2ccc(OC)c(OC)c2)c(C(=O)OC)c1C -1.59%, COc1ccc(CNC(=O)CSc2nc3ccccc3nc2Cc2ccccc2OC)cc1 -12.4%, CC(C)NC(=O)CCCN1C(=O)CCn2nc(-c3cccn3C)cc21 5.72%, CCN1CCN(c2cc3c(cc2F)c(=O)c(S(=O)(=O)c2ccccc2)cn3C)CC1 17.6%, COc1ccccc1NC(=O)CSc1nc2ccccc2c2nc(-c3ccccc3)nn12 3.31%, Cc1sc2ncn(CC(=O)N3CCN(c4ccc(F)cc4)CC3)c(=O)c2c1S(=O)(=O)N1CCC(C)CC1 -1.66%, Cc1ccc(CNC(=O)Cn2c(=O)cc(C(F)(F)F)c3c(C)nn(C)c32)cc1 -10.4%, COC(=O)C1=C(c2ccccc2)c2ccccc2S(=O)(=O)N1CC(=O)Nc1ccc(F)c(F)c1 -43.1%, CC1CCC(C(=O)N(c2cc(C#CC(C)(C)C)sc2C(=O)O)C2CCC(O)CC2)CC1 (stereo unspecified) -47.3%, CCOc1ccc(NC(=O)CN(c2ccc(CC)cc2)S(=O)(=O)c2c(C)noc2C)cc1 -6.95%, Cc1ccc(CNC(=O)C2CCN(S(=O)(=O)c3c(C)noc3/C=C/c3cccs3)CC2)cc1 -7.28%, O=C(CCS(=O)(=O)c1cc2c(cc1Cl)NC(=O)CO2)NCc1ccccc1Cl -6.01%, CC(C)Oc1ccc(CNC(=O)c2ccc(CN3CC(=O)N4CCCCC4C3=O)cc2)cc1 (stereo unspecified) -16%, Oc1c(C(c2ccc(Cl)cc2Cl)N2CCN(c3ccccc3)CC2)sc2nc(-c3ccco3)nn12 (stereo unspecified) -13%, O=C(NCc1cccc(Cl)c1)c1ccc(NC(=O)N2CC3CCCN3c3ccccc32)cc1 (stereo unspecified) -39.2%, CSc1ncc(C(=O)NCc2cccc(F)c2)c(-c2ccccc2)n1 -22.2%, COc1ccc(NC(=O)CN2CCCN(Cc3ccc(Cl)cc3)S2(=O)=O)cc1Cl -39.8%, CCN1c2ccccc2-c2nc(SCC(=O)NCc3ccc(C)cc3)ncc2S1(=O)=O 2.11%, COc1ccc(CNC(=O)c2cnc3sc(N4CCCCCC4)nn3c2=O)cc1 -1.19%, CCOC(=O)c1cnc2ccccc2c1NCCc1ccc(OC)c(OC)c1 -16.9%, CCOc1ccc(NC(=O)NCCc2c(C)nn(C)c2C)cc1 7.43%, CC1CCc2nn(CC(=O)Nc3ccccc3Cl)cc2C1 (stereo unspecified) 9.02%, COc1ccc(NC(=O)C(=O)NCC(c2cccnc2)N2CCc3ccccc32)cc1OC (stereo unspecified) -27%, Cc1c(C2=CCN(S(=O)(=O)c3cccc(Cl)c3)CC2)c2ccccc2n1CC(=O)N1CCCC1 -33.2%, CN(Cc1ccccc1)S(=O)(=O)c1ccc(-c2cnc(C3CC3)o2)cc1 -18.4%, Cc1ccc(NC(=O)C(C)Sc2nc(=O)cc(N)n2-c2cccc(C)c2)cc1 (stereo unspecified) -17.8%, COc1cccc(S(=O)(=O)N2CCN(Cc3ccc4c(c3)OCO4)CC2)c1 -10.4%, CCc1ccc(-c2nc3c(c(SCc4ccccc4F)n2)Cc2c(CO)cnc(C)c2O3)cc1 -8.91%, Cc1cccc(N2CCN(C(=O)CN3CCSc4ccccc43)CC2C)c1 (stereo unspecified) -27%, CCCc1nc(SC)ncc1C(=O)N1CCN(c2ccc(Cl)cc2)CC1 -36.4%, O=C(Nc1ccc2nc(SCC(=O)N3CCc4ccccc43)sc2c1)c1ccc(F)cc1 -7.76%, O=c1c2oc3ccccc3c2n(Cc2ccccc2Cl)c(=O)n1Cc1ccco1 -16.9%, COc1ccc(CN(Cc2ccco2)c2cnc(S(C)(=O)=O)nc2C(=O)Nc2ccc(C)c(Cl)c2)cc1 -17.9%, Cc1ccc(NC(=O)c2cnn3c(C(F)F)cc(-c4ccccc4)nc23)cc1F 1.21%, CCCn1c(SCc2nc(-c3ccc(OC)c(OC)c3)no2)nnc1-c1ccccc1 -23.3%, CC(C)Oc1ccc(C(=O)N2CCN(CCc3ccccn3)CC2)cc1 -8.08%, O=C(NCCc1ccccc1)C1CCC(CNS(=O)(=O)c2ccccc2)CC1 (stereo unspecified) -0.55%, CC(=O)OCC(=O)[C@@]12N=C(C)O[C@@H]1C[C@H]1[C@@H]3CCC4=CC(=O)C=C[C@]4(C)[C@H]3[C@@H](O)C[C@@]12C -1.83%, NS(=O)(=O)c1ccc(CCNC(=O)Cn2c(-c3cccs3)cc3ccccc32)cc1 -28.2%, Cc1cc2c(cc1C)NC(CC(=O)Nc1cccc(Cl)c1)C(=O)N2 (stereo unspecified) -25.1%, O=C(O)Cc1sc(-c2ccccc2)nc1-c1ccc(Cl)cc1 -7.71%, C=CCc1cccc2cc(C(=O)NCCc3c(C)[nH]c4c(C)cccc34)c(=O)oc12 -10.8%, CCN(CC)c1ccc(NC(=O)CCc2nc3cccnc3n2Cc2cccs2)c(C)c1 -18.8%, O=C(NCC(c1ccc2c(c1)OCO2)N1CCOCC1)C(=O)Nc1ccccc1 (stereo unspecified) -3.26%, CCOC(=O)N1CCC(NC(=O)c2cnn(-c3ccc(F)cc3F)c2C2CCN(C(=O)OC(C)(C)C)CC2)CC1 -16.3%, Cc1ccccc1NC(=O)c1ccc2c(O)c(S(=O)(=O)c3ccccc3)c(=O)[nH]c2c1 -4.61%, Cc1cccc(N2CCN(S(=O)(=O)c3ccc(-c4cc(C(F)(F)F)on4)s3)CC2)c1C -16.6%, Cc1ccccc1OCC(=O)Nc1ccc2nc(SCC(=O)N3CCc4ccccc43)sc2c1 -26%, O=C(C1CCCN(S(=O)(=O)c2ccc(Br)s2)C1)N1CCN(c2cccc(Cl)c2)CC1 (stereo unspecified) -25.4%, COc1cccc(C2C(C(=O)Nc3ccc(Cl)cc3)=C(C)Nc3nc4ccccc4n32)c1 (stereo unspecified) -19.9%, OCc1cc(C(O)CNCCCCCCOCCCCc2ccccc2)ccc1O (stereo unspecified) -13.3%, CCC(C)Sc1oc(-c2ccco2)nc1S(=O)(=O)c1ccc(C)cc1 (stereo unspecified) -34.8%, Cc1ccc(CNc2ncnc3c2cnn3-c2ccc(Cl)cc2)cc1 18.3%, COc1ccc2c(c1)c1c(c(=O)n(-c3ccc(C)cc3)c(=O)n1CC(=O)NCc1ccc(C)cc1)n2C -5.41%, COc1ccc(Cl)cc1NC(=O)c1nnn(Cc2cccc(C(F)(F)F)c2)c1N 8.51% [at 11.5 µM, percent change from vehicle, -100% = no light], O=C(Nc1nnc(S(=O)(=O)N2CCOCC2)s1)c1ccccc1F 18%, Cc1ccc(NC(=O)C(C)Sc2nc(-c3ccccc3)c(C#N)c(=O)[nH]2)c(C)c1 (stereo unspecified) -9.64%, O=c1c(N2CCc3ccccc3C2)csc2ccc(Cl)cc12 21%, CC(C)Cc1nn2c(=O)cc(COC(=O)c3ccc(NC(=O)CCc4ccccc4)cc3)nc2s1 12.2%, COc1ccc(Nc2c(-c3ccc(N4CCOCC4)cc3)nc3ncccn23)cc1OC -6.77%, CC(C)c1cnc2c(c1SCC(=O)N1CCCCC1)c(=O)n(C)c(=O)n2C -16.1%, CCOc1cc(CN2CCN(S(=O)(=O)c3ccc(C)cc3)CC2)ccc1OC -20.9%, COc1ccc(/C=C/C(=O)Nc2sc(C)c(C)c2C(=O)O)cc1 20%

Reference: PubChem BioAssay AID1508624 (National Center for Advancing Translational Sciences (NCATS), 2021)
